In the supplement of paper PMC8728848:
Some of the results follow.

Legend:
Experiment in all cases: glycan array binding signal (z-score within array); higher = stronger binding
Details in all cases: glycan notation: IUPAC condensed, linker removed
[1] = target: Fuc(a1-2)[GalNAc(b1-3)]Gal
In short: (§1)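 Arrays were curated from the Consortium for Functional Glycomics database, 3228 in total, and kept only where the protein sequence was available. Binding is expressed as a within-array Z-score. This score was averaged across arrays of the same protein sequence at different concentrations or buffers and across linkers, and negative values can be read as non-binding.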

[2] = target: Fuc(a1-3)GlcNAc
In short: as §1

[3] = target: Fuc(a1-3)[Gal(b1-4)]Glc6S
In short: as §1

[4] = target: Fuc(a1-3)[Gal(b1-4)]GlcNAc
In short: as §1

[5] = target: Fuc(a1-3)[Gal(b1-4)]GlcNAc(b1-2)Man
In short: as §1

[6] = target: Fuc(a1-3)[Gal(b1-4)]GlcNAc(b1-2)Man(a1-3)[Fuc(a1-3)[Gal(b1-4)]GlcNAc(b1-2)Man(a1-6)]Man(b1-4)GlcNAc(b1-4)GlcNAc
In short: as §1

[7] = target: Fuc(a1-3)[Gal(b1-4)]GlcNAc(b1-2)Man(a1-3)[Fuc(a1-3)[Gal(b1-4)]GlcNAc(b1-2)Man(a1-6)]Man(b1-4)GlcNAc(b1-4)[Fuc(a1-6)]GlcNAc
In short: as §1

[8] = target: Fuc(a1-3)[Gal(b1-4)]GlcNAc(b1-3)Gal(b1-3)[Fuc(a1-4)]GlcNAc
In short: as §1

[9] = target: Fuc(a1-3)[Gal(b1-4)]GlcNAc(b1-3)Gal(b1-4)[Fuc(a1-3)]GlcNAc
In short: as §1

[10] = target: Fuc(a1-3)[Gal(b1-4)]GlcNAc(b1-3)Gal(b1-4)[Fuc(a1-3)]GlcNAc(b1-3)Gal(b1-4)[Fuc(a1-3)]GlcNAc
In short: as §1

[11] = target: Fuc(a1-3)[Gal(b1-4)]GlcNAc(b1-3)GalNAc
In short: as §1

[12] = target: Fuc(a1-3)[Gal(b1-4)]GlcNAc(b1-6)GalNAc
In short: as §1

[13] = target: Fuc(a1-3)[Gal(b1-4)]GlcNAc(b1-6)[Gal(b1-3)GlcNAc(b1-3)]Gal(b1-4)Glc
In short: as §1

[14] = target: Fuc(a1-3)[Gal(b1-4)]GlcNAc6S
In short: as §1

[15] = target: Fuc(a1-3)[Gal3S(b1-4)]Glc
In short: as §1

[16] = target: Fuc(a1-3)[Gal3S(b1-4)]GlcNAc
In short: as §1

[17] = target: Fuc(a1-3)[Gal3S(b1-4)]GlcNAc6S
In short: as §1

[18] = target: Fuc(a1-3)[GalNAc(b1-4)]GlcNAc
In short: as §1

[19] = target: Fuc(a1-3)[GalNAc(b1-4)]GlcNAc6S
In short: as §1

[20] = target: Fuc(a1-4)GlcNAc
In short: as §1

[21] = target: Fuc(b1-3)GlcNAc
In short: as §1

[22] = target: Gal(a1-2)Gal
In short: as §1

[23] = target: Gal(a1-3)Gal
In short: as §1

[24] = target: Gal(a1-3)Gal(b1-3)GlcNAc
In short: as §1

[25] = target: Gal(a1-3)Gal(b1-3)GlcNAc(b1-2)Man
In short: as §1

[26] = target: Gal(a1-3)Gal(b1-3)GlcNAc(b1-2)Man(a1-3)[Gal(a1-3)Gal(b1-3)GlcNAc(b1-2)Man(a1-6)]Man(b1-4)GlcNAc(b1-4)GlcNAc
In short: as §1

[27] = target: Gal(a1-3)Gal(b1-3)GlcNAc(b1-3)GalNAc
In short: as §1

[28] = target: Gal(a1-3)Gal(b1-3)GlcNAc(b1-6)GalNAc
In short: as §1

[29] = target: Gal(a1-3)Gal(b1-3)[Fuc(a1-4)]GlcNAc(b1-2)Man(a1-3)[Gal(a1-3)Gal(b1-3)[Fuc(a1-4)]GlcNAc(b1-2)Man(a1-6)]Man(b1-4)GlcNAc(b1-4)GlcNAc
In short: as §1

[30] = target: Gal(a1-3)Gal(b1-4)Glc
In short: as §1

B1: CML1 (Coprinopsis cinerea) (protein)
chain: MAIFHTGSELFIITRGPGKLTLLTWGGLNNLRSVIGAIPTENTGVTKWAVSFSHNYTRFSFIWEGQGEACYQIGNGLTRSPVGRSWSSSSTIHWGSSTVITEDVTSVVPGAVNRDKVTTAYALPDNL
[1]
  glycan array binding signal (z-score): -0.318
[2]
  glycan array binding signal (z-score): -0.344
[3]
  glycan array binding signal (z-score): -0.225
[4]
  glycan array binding signal (z-score): 0.691
[5]
  glycan array binding signal (z-score): -0.325
[6]
  glycan array binding signal (z-score): 0.242
[7]
  glycan array binding signal (z-score): -0.299
[8]
  glycan array binding signal (z-score): -0.006
[9]
  glycan array binding signal (z-score): 0.811
[10]
  glycan array binding signal (z-score): 2.45
[11]
  glycan array binding signal (z-score): -0.098
[12]
  glycan array binding signal (z-score): -0.348
[13]
  glycan array binding signal (z-score): -0.296
[14]
  glycan array binding signal (z-score): -0.346
[15]
  glycan array binding signal (z-score): 1.15
[16]
  glycan array binding signal (z-score): 2.79
[17]
  glycan array binding signal (z-score): 1.89
[18]
  glycan array binding signal (z-score): 0.228
[19]
  glycan array binding signal (z-score): 2.43
[20]
  glycan array binding signal (z-score): -0.326
[21]
  glycan array binding signal (z-score): -0.35
[22]
  glycan array binding signal (z-score): -0.361
[23]
  glycan array binding signal (z-score): -0.325
[24]
  glycan array binding signal (z-score): -0.32
[25]
  glycan array binding signal (z-score): -0.327
[26]
  glycan array binding signal (z-score): -0.346
[27]
  glycan array binding signal (z-score): -0.349
[28]
  glycan array binding signal (z-score): -0.349
[29]
  glycan array binding signal (z-score): -0.239
[30]
  glycan array binding signal (z-score): -0.337
